{"source": "the supplement of paper PMC10126150", "note": "Sequences with one replicate were seen in a single cluster, so their values are uncertain.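 Note: ATP exposure 15 min at 22 °C before imaging.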"}
{"test_system": "ATP", "test": "switch fluorescence ratio, 500 uM ATP over buffer (Cy3 cluster intensity, sum of 5 cycles each) (fold (ratio)); higher = stronger signal-on switching upon ATP binding; sequences stand for … in TCGTCGGCAGCGTCAGATGTGTATAAGAGACAGTTTTTTTTTTTTTTTTTTTTTTTTT…TC", "details": "aptamer strand: ATP DNA aptamer (quencher-CACCTGGGGGAGTATTGCGGAGGAAGG + anchor), 100 nM annealed; ATP concentration: 500 uM; one replicate", "how_it_was_run": "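The quencher-labelled ATP aptamer, at 100 nM, was annealed to Cy3-labelled switching-strand clusters on a modified Illumina MiSeq flow-cell. The clusters were imaged in selection buffer, then after 15 min with 500 uM ATP at 22 °C, and this buffer/ATP cycle ran five times with NaOH stripping and re-annealing between runs. Per-cluster fluorescence ratios, summed target-cycle over summed buffer-cycle Cy3 intensity, were averaged per switch-domain sequence. Clusters outside 100-1000 RFU were excluded.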"}
{"sequence": "GTGGAAAAAC", "switch fluorescence ratio": 1.02}
{"sequence": "GTGGAAATCG", "switch fluorescence ratio": 0.973}
{"sequence": "GTGGAATCGG", "switch fluorescence ratio": 1.01}
{"sequence": "GTGGAATGAC", "switch fluorescence ratio": 0.986}
{"sequence": "GTGGACGAAA", "switch fluorescence ratio": 1.05}
{"sequence": "GTGGACGACA", "switch fluorescence ratio": 1.04}
{"sequence": "GTGGAGGAA", "switch fluorescence ratio": 1.02}
{"sequence": "GTGGCCTACA", "switch fluorescence ratio": 0.999}
{"sequence": "GTGGCCTAGG", "switch fluorescence ratio": 1.1}
{"sequence": "GTGGCCTGCT", "switch fluorescence ratio": 0.995}
{"sequence": "GTGGCTGCCT", "switch fluorescence ratio": 1.01}
{"sequence": "GTGGCTGGAA", "switch fluorescence ratio": 0.996}
{"sequence": "GTGGCTTAAT", "switch fluorescence ratio": 0.981}
{"sequence": "GTGGCTTATG", "switch fluorescence ratio": 0.965}
{"sequence": "GTGGCTTGAG", "switch fluorescence ratio": 1.01}
{"sequence": "GTGGGACCCA", "switch fluorescence ratio": 0.967}
{"sequence": "GTGGGCAGGG", "switch fluorescence ratio": 1.01}
{"sequence": "GTGGGCCGTT", "switch fluorescence ratio": 1.08}
{"sequence": "GTGGGGAGAA", "switch fluorescence ratio": 0.965}
{"sequence": "GTGGGGATAG", "switch fluorescence ratio": 0.938}
{"sequence": "GTGGGGCATG", "switch fluorescence ratio": 0.978}
{"sequence": "GTGGGTAGTA", "switch fluorescence ratio": 0.985}
{"sequence": "GTGGTATCGC", "switch fluorescence ratio": 1}
{"sequence": "GTGGTCGATC", "switch fluorescence ratio": 1.07}
{"sequence": "GTGGTGGCT", "switch fluorescence ratio": 1.03}
{"sequence": "GTGGTTACTT", "switch fluorescence ratio": 1.04}
{"sequence": "GTGTAATATG", "switch fluorescence ratio": 0.989}
{"sequence": "GTGTAATCGC", "switch fluorescence ratio": 1.03}
{"sequence": "GTGTAATTCA", "switch fluorescence ratio": 0.968}
{"sequence": "GTGTAATTTC", "switch fluorescence ratio": 0.955}
{"sequence": "GTGTACATCG", "switch fluorescence ratio": 1.01}
{"sequence": "GTGTAGACAT", "switch fluorescence ratio": 1}
{"sequence": "GTGTAGAGTA", "switch fluorescence ratio": 1.01}
{"sequence": "GTGTAGGAGA", "switch fluorescence ratio": 0.998}
{"sequence": "GTGTAGTGGC", "switch fluorescence ratio": 0.988}
{"sequence": "GTGTATACGC", "switch fluorescence ratio": 1.02}
{"sequence": "GTGTATGAAC", "switch fluorescence ratio": 1}
{"sequence": "GTGTATGACC", "switch fluorescence ratio": 0.994}
{"sequence": "GTGTCATGGC", "switch fluorescence ratio": 1.02}
{"sequence": "GTGTCGTCTA", "switch fluorescence ratio": 1.03}
{"sequence": "GTGTGACACA", "switch fluorescence ratio": 0.961}
{"sequence": "GTGTGAGAGA", "switch fluorescence ratio": 0.961}
{"sequence": "GTGTGAGTCC", "switch fluorescence ratio": 1.05}
{"sequence": "GTGTGATCGT", "switch fluorescence ratio": 0.953}
{"sequence": "GTGTGCCACG", "switch fluorescence ratio": 0.958}
{"sequence": "GTGTGCCGTT", "switch fluorescence ratio": 1.06}
{"sequence": "GTGTGGCGGT", "switch fluorescence ratio": 1.2}
{"sequence": "GTGTGGGAAA", "switch fluorescence ratio": 0.999}
{"sequence": "GTGTGGGATA", "switch fluorescence ratio": 0.989}
{"sequence": "GTGTGGGTG", "switch fluorescence ratio": 0.982}
{"sequence": "GTGTGGTTGG", "switch fluorescence ratio": 0.989}
{"sequence": "GTGTGTATAA", "switch fluorescence ratio": 0.976}
{"sequence": "GTGTGTGGGT", "switch fluorescence ratio": 0.974}
{"sequence": "GTGTGTTTCC", "switch fluorescence ratio": 1.06}
{"sequence": "GTGTTAGAGC", "switch fluorescence ratio": 0.98}
{"sequence": "GTGTTGAGAC", "switch fluorescence ratio": 0.946}
{"sequence": "GTGTTGATGT", "switch fluorescence ratio": 1}
{"sequence": "GTGTTTCGTG", "switch fluorescence ratio": 0.985}
{"sequence": "GTGTTTGCAT", "switch fluorescence ratio": 0.992}
{"sequence": "GTGTTTGGTA", "switch fluorescence ratio": 0.982}
{"sequence": "GTGTTTTGGA", "switch fluorescence ratio": 0.934}
{"sequence": "GTTAACGGTT", "switch fluorescence ratio": 0.991}
{"sequence": "GTTAAGACAG", "switch fluorescence ratio": 0.984}
{"sequence": "GTTAATTCCT", "switch fluorescence ratio": 1.01}
{"sequence": "GTTACAACTG", "switch fluorescence ratio": 0.999}
{"sequence": "GTTACAATAA", "switch fluorescence ratio": 0.971}
{"sequence": "GTTACACTC", "switch fluorescence ratio": 0.994}
{"sequence": "GTTACCCTCT", "switch fluorescence ratio": 1.02}
{"sequence": "GTTACCTCTG", "switch fluorescence ratio": 1.03}
{"sequence": "GTTACGAGGC", "switch fluorescence ratio": 1.14}
{"sequence": "GTTACGGAGC", "switch fluorescence ratio": 1.37}
{"sequence": "GTTACGGTAA", "switch fluorescence ratio": 1.1}
{"sequence": "GTTACGTGCC", "switch fluorescence ratio": 1.07}
{"sequence": "GTTACTGGGA", "switch fluorescence ratio": 1.04}
{"sequence": "GTTAGCACTG", "switch fluorescence ratio": 1.08}
{"sequence": "GTTAGCTCGC", "switch fluorescence ratio": 0.974}
{"sequence": "GTTAGGAGCC", "switch fluorescence ratio": 0.978}
{"sequence": "GTTAGGGTCA", "switch fluorescence ratio": 0.964}
{"sequence": "GTTAGGTCGG", "switch fluorescence ratio": 1.02}
{"sequence": "GTTAGTATCG", "switch fluorescence ratio": 0.996}
{"sequence": "GTTAGTCCG", "switch fluorescence ratio": 0.901}
{"sequence": "GTTAGTGCTG", "switch fluorescence ratio": 0.997}
{"sequence": "GTTATAGTCC", "switch fluorescence ratio": 1.06}
{"sequence": "GTTATCCGC", "switch fluorescence ratio": 1.17}
{"sequence": "GTTATGAGGC", "switch fluorescence ratio": 1.01}
{"sequence": "GTTATGATTC", "switch fluorescence ratio": 1.04}
{"sequence": "GTTATGGAAG", "switch fluorescence ratio": 1.03}
{"sequence": "GTTATGGGAG", "switch fluorescence ratio": 1}
{"sequence": "GTTATGTGCG", "switch fluorescence ratio": 1.01}
{"sequence": "GTTATGTTGG", "switch fluorescence ratio": 0.966}
{"sequence": "GTTCAAGATT", "switch fluorescence ratio": 1.02}
{"sequence": "GTTCAATGG", "switch fluorescence ratio": 1.04}
{"sequence": "GTTCACACCG", "switch fluorescence ratio": 1.03}
{"sequence": "GTTCACAGCG", "switch fluorescence ratio": 0.994}
{"sequence": "GTTCACCCAA", "switch fluorescence ratio": 1.08}
{"sequence": "GTTCACCCCC", "switch fluorescence ratio": 1.69}
{"sequence": "GTTCAGCCAG", "switch fluorescence ratio": 1.16}
{"sequence": "GTTCAGCCGG", "switch fluorescence ratio": 1.03}
{"sequence": "GTTCATCCTT", "switch fluorescence ratio": 1.04}
{"sequence": "GTTCCCTAA", "switch fluorescence ratio": 1.02}
{"sequence": "GTTCCCTGGG", "switch fluorescence ratio": 1.07}
{"sequence": "GTTCCCTGTT", "switch fluorescence ratio": 0.965}
{"sequence": "GTTCCGAATA", "switch fluorescence ratio": 1.25}
{"sequence": "GTTCCGGCAA", "switch fluorescence ratio": 3.24}
{"sequence": "GTTCGAATTA", "switch fluorescence ratio": 0.989}
{"sequence": "GTTCGAGTAT", "switch fluorescence ratio": 1.05}
{"sequence": "GTTCGCTTGG", "switch fluorescence ratio": 1.03}
{"sequence": "GTTCGGAACT", "switch fluorescence ratio": 1.03}
{"sequence": "GTTCGGGCTA", "switch fluorescence ratio": 1.04}
{"sequence": "GTTCGGGGAT", "switch fluorescence ratio": 1.04}
{"sequence": "GTTCGGGGCA", "switch fluorescence ratio": 0.987}
{"sequence": "GTTCGTTGCT", "switch fluorescence ratio": 0.952}
{"sequence": "GTTCGTTTTT", "switch fluorescence ratio": 0.969}
{"sequence": "GTTCTAAAAC", "switch fluorescence ratio": 1.01}
{"sequence": "GTTCTATACT", "switch fluorescence ratio": 1.05}
{"sequence": "GTTCTATGGG", "switch fluorescence ratio": 0.967}
{"sequence": "GTTCTATGTA", "switch fluorescence ratio": 1.02}
{"sequence": "GTTCTATTTA", "switch fluorescence ratio": 0.982}
{"sequence": "GTTCTCCCTT", "switch fluorescence ratio": 1.01}
{"sequence": "GTTCTCTAAT", "switch fluorescence ratio": 1.03}
{"sequence": "GTTCTGCTGG", "switch fluorescence ratio": 0.966}
{"sequence": "GTTCTGTTAC", "switch fluorescence ratio": 0.998}
{"sequence": "GTTGAAGAGA", "switch fluorescence ratio": 1.04}
{"sequence": "GTTGAAGCCG", "switch fluorescence ratio": 0.928}
{"sequence": "GTTGACATGC", "switch fluorescence ratio": 1.03}
{"sequence": "GTTGACTCCT", "switch fluorescence ratio": 0.987}
{"sequence": "GTTGAGAAGC", "switch fluorescence ratio": 1.05}
{"sequence": "GTTGAGATAA", "switch fluorescence ratio": 1.01}
{"sequence": "GTTGAGATGT", "switch fluorescence ratio": 1.01}
{"sequence": "GTTGATGGCA", "switch fluorescence ratio": 1.06}
{"sequence": "GTTGCGTTTG", "switch fluorescence ratio": 0.986}
{"sequence": "GTTGCTGCGC", "switch fluorescence ratio": 1.08}
{"sequence": "GTTGCTTAAG", "switch fluorescence ratio": 0.958}
{"sequence": "GTTGCTTGGA", "switch fluorescence ratio": 0.965}
{"sequence": "GTTGGGTAAG", "switch fluorescence ratio": 0.952}
{"sequence": "GTTGGGTGAC", "switch fluorescence ratio": 1.05}
{"sequence": "GTTGGTCTAA", "switch fluorescence ratio": 1.04}
{"sequence": "GTTGTAATCG", "switch fluorescence ratio": 1.01}
{"sequence": "GTTGTACTAC", "switch fluorescence ratio": 1.01}
{"sequence": "GTTGTACTAG", "switch fluorescence ratio": 0.964}
{"sequence": "GTTGTCGG", "switch fluorescence ratio": 0.962}
{"sequence": "GTTGTCTTC", "switch fluorescence ratio": 0.989}
{"sequence": "GTTGTGAGGC", "switch fluorescence ratio": 1.02}
{"sequence": "GTTGTTCGG", "switch fluorescence ratio": 0.986}
{"sequence": "GTTGTTGGGC", "switch fluorescence ratio": 1.04}
{"sequence": "GTTTAAATT", "switch fluorescence ratio": 0.957}
{"sequence": "GTTTACATTT", "switch fluorescence ratio": 0.979}
{"sequence": "GTTTACCAGG", "switch fluorescence ratio": 1.18}
{"sequence": "GTTTACCTTT", "switch fluorescence ratio": 0.996}
{"sequence": "GTTTAGGTGC", "switch fluorescence ratio": 1.12}
{"sequence": "GTTTATAATT", "switch fluorescence ratio": 0.951}
{"sequence": "GTTTATGGGG", "switch fluorescence ratio": 1.04}
{"sequence": "GTTTATTTAC", "switch fluorescence ratio": 1.05}
